From ChEMBL document CHEMBL1201862, “PubChem BioAssay data set” (2004)

What follows are compounds tested on NCI-H322M (assay: growth of human tumour cells (NCI), 48 h).

SMILES | GI50
COc1cc(OC2OC(CO)C(O)C(O)C2O)c2c(O)c3c(=O)cc(C)oc3cc2c1 (stereo unspecified) | inactive: > 100 µM
NC(CCC(=O)Nc1ccc(O)cc1)C(=O)O (stereo unspecified) | inactive: > 100 µM
C1=NN2C(c3ccccc3)=NOC2C2C(c3ccccc3)=NOC12 (stereo unspecified) | inactive: > 100 µM
Cc1ccc(CC(Cc2ccccc2C)C(=O)O)c(C(=O)O)c1 (stereo unspecified) | inactive: > 100 µM
COC1CC(OC(=O)c2ccccc2)C(OC(=O)c2ccccc2)C(C)O1 (stereo unspecified) | inactive: > 100 µM
CCOC(=O)/N=c1\ss/c(=N\C(=S)N(C)C)n1-c1ccccc1 | inactive: > 10 µM
O=c1oc2ccccc2n1P(=O)(Oc1ccc(Cl)cc1)n1c(=O)oc2ccccc21 | inactive: > 100 µM
Cc1cc2nnn(C3CCCCO3)c2cc1C (stereo unspecified) | inactive: > 100 µM
c1ccc(CNc2nncc3[nH]cnc23)cc1 | inactive: > 100 µM
C/C(=N/NC(N)=S)c1ccc2ccccc2c1 | inactive: 52.1 µM
O=C1CSC(=S)N1 [RHODANINE] | inactive: > 100 µM
CCC(C)SC1SCC2C(=O)N(C)C3(CC3C)C(=O)OCC(NC(=O)c3nc4ccccc4cc3O)C(=O)NC(C)C(=O)N(C)C1C(=O)N(C)C1(CC1C)C(=O)OCC(NC(=O)c1nc3ccccc3cc1O)C(=O)NC(C)C(=O)N2C (stereo unspecified) | active: 5.16e-05 µM
CCOc1ccc(C(CN2CCOCC2)C(C)=O)cc1OC (stereo unspecified) | inactive: 67.5 µM
C(=N\Nc1nnc2c(n1)[nH]c1ccccc12)/c1cccnc1 | inactive: > 100 µM
CN(C)C(=O)NC(=S)N(C)C | inactive: > 100 µM
COc1ccc(/N=N/C(=N/NC(=O)c2ccc(C)cc2)c2ccc(N(CCC#N)CCC#N)cc2OC)cc1 | inactive: > 100 µM
Clc1ccc2nc(-c3ccccc3)nc(Cl)c2c1 | inactive: 57.1 µM
COc1ccc(O)c2c1C(=O)CCCC2=O | inactive: > 100 µM
COCC[N+](CCNC(=O)c1cccc2c(N)c3cccc(C)c3nc12)(CCOC)Cc1ccc([N+](=O)[O-])cc1 | inactive: 20.1 µM
Fc1cc(-c2ncc(Cl)cc2Cl)c2cccccc1-2 | inactive: > 100 µM
C=C1C(=O)C2=CC1CCC(=O)C1(C)CCC(OC(C)=O)C(C)(C)C1CC2O (stereo unspecified) | inactive: 12.2 µM
COc1ccc(CCCNC(=O)Cc2ccccc2CO)cc1OC | inactive: > 100 µM
COC(=O)C(C)(C)NC(=O)C(Cc1ccccc1)NC(=O)C(C)(C)NC(=O)OCc1ccccc1 (stereo unspecified) (Cbz-[Aib]-[ξF]-[Aib]-OMe) | inactive: > 100 µM

SMILES | GI50
COC(C)(C)OCCN1CCN(CCN2C3=C(C=C(C(C)=O)C3)Sc3ccccc32)CC1 | inactive: 27.7 µM
CC(=O)OC(C)(C)C[N+](=O)[O-] | inactive: > 100 µM
CC1(C)c2ccccc2N2C(c3ccccc3)=NOC21C (stereo unspecified) | inactive: > 100 µM
NC(=O)NNC(=O)CCn1[nH]c(=O)c(Cl)c(Cl)c1=O | inactive: > 100 µM
O=C1C2c3[nH]c4ccccc4c3C3CCCCCC3C2C(=O)N1c1ccccc1 (stereo unspecified) | inactive: > 64.9 µM
O=C1/C(=C/c2ccc3c(c2)OCO3)CCC1CN1CCOCC1 (stereo unspecified) | inactive: 16.5 µM
Cc1ccc(N(Cc2ccccc2)Cc2ccccc2)cc1 | inactive: > 100 µM
O[C@@H]1C[C@H](Cl)c2c(Cl)sc(Cl)c21 | inactive: > 100 µM
COC(=O)C(=O)C(C(=O)C(=O)Nc1cccc([N+](=O)[O-])c1)c1nc2ccc(Cl)cc2nc1O (stereo unspecified) | inactive: > 100 µM
CSc1ccc(C2OC(=O)c3ccccc32)c2ccccc12 (stereo unspecified) | inactive: > 100 µM
COC(=O)[C@@H]1C[C@H]2OC(=O)CC[C@]2(C)O[C@H]1[C@H]1O[C@@](C)(O)CCC[C@H]1C | inactive: > 50 µM
COc1cc([C@@H]2c3cc4c(cc3[C@@H](Nc3ccc(Cl)cc3C(=O)c3ccccc3)[C@H]3COC(=O)[C@H]23)OCO4)cc(OC)c1OC | active: 0.555 µM
N#CC1C(C#N)C2(c3ccccc3)C(c3ccccc3)=NN(c3ccccc3)CC12 (stereo unspecified) | inactive: > 100 µM
CCOC(=O)C1=C(C)C(C(=O)OC)/C(=C/c2cccc3cccnc23)C1=O (stereo unspecified) | inactive: > 10 µM
O=NN1C(c2ccccc2)CC(=NO)CC1c1ccccc1 (stereo unspecified) | inactive: > 100 µM
COc1ccc(NC(=O)CC(=O)n2nc(-c3ccccc3)c(/N=N/c3ccccc3C)c2-c2ccccc2)cc1 | inactive: > 100 µM
COc1ccc2cc(CNCCCCCCCCCCCCNCc3ccc4cc(OC)ccc4c3)ccc2c1 | inactive: 18.4 µM
COC(=O)C1CCC(=O)N1/C(C)=N/NC(=O)Nc1ccc(Cl)c(Cl)c1 (stereo unspecified) | inactive: > 100 µM
Cc1ccc(S(=O)(=O)N2CCCC2C(=O)O[C@H]2CC[C@H]3CC=C[C@H]32)cc1 (stereo partly specified) | inactive: > 100 µM
C=C(C)[C@H](O)C(O)CC(C)[C@@H]1CCC23CC12CCC1[C@@]2(C)CCC(OC(C)=O)C(C)(C)C2CC(OC2OC(COC(C)=O)C(O)C(O)C2O)[C@]13C (stereo partly specified) | inactive: 6.32 µM
NNc1[nH]c(=S)[nH]c1C(N)=O | inactive: > 100 µM
O=C(CCCCCCCCC(=O)N1C(=O)CC(=O)N(c2cccc(Cl)c2)C1=S)N1C(=O)CC(=O)N(c2cccc(Cl)c2)C1=S | inactive: 26.9 µM
O=C(CC(NC(=O)C(F)(F)F)C(=O)O)OCc1ccccc1 (stereo unspecified) | inactive: > 100 µM

SMILES | GI50
CSCC[C@@H]1C(=O)N(C)[C@H](C(C)(C)C)N1C(=O)c1ccccc1 | inactive: > 100 µM
O=P(c1ccccc1)(c1ccccc1)N1O[C@@H](c2ccccc2)C=C[C@H]1c1ccccc1 | inactive: 14.2 µM
CC1(C)OP(=O)(c2ccccc2)C=C1Br (stereo unspecified) | inactive: > 100 µM
COc1cc(NC=C2C(=O)OC(C)(C)OC2=O)c(OC)c(C)c1OC | inactive: > 100 µM
Nc1nc(N)c2c(-c3ccccc3)ccnc2n1 | inactive: 68.5 µM
Clc1ccc(-c2nnc(-c3c(Cl)c(Cl)c(Cl)c(Cl)c3-c3nc4ccccc4[nH]3)o2)cc1 | inactive: 97.5 µM
C[C@]12CC[C@H]3[C@@H](CCC4=CC(=O)CC[C@@]43C)[C@@H]1CC[C@@H]2OC(=O)c1cccc2c(=O)c3ccccc3[nH]c12 | inactive: 19.1 µM
O=C1C[C@H]2[C@@H](O1)[C@@H](O)CN1C(=O)c3ccccc3[C@H]21 | inactive: > 100 µM
C/C(=N\NC(=S)N1CCC1)c1ccccn1 | active: 0.01 µM
CCOC(=O)c1cc2cc(C)cc(C(=O)c3ccc([N+](=O)[O-])cc3)c2[nH]1 | inactive: > 100 µM
Cc1c(/C=N/NC(=S)Nc2ccc([N+](=O)[O-])cc2)c(=O)n(-c2ccccc2)n1C | inactive: 12.8 µM
Cc1nc(N)sc1C(=O)Nc1nc[nH]n1 | inactive: > 100 µM
COC1=CC2(C=CC1=O)CCNC1=C2C(=O)c2nc[nH]c2C1=O (stereo unspecified) | inactive: > 100 µM
C[C@]12CC[C@H](OC(=O)Cc3ccc(N(CCCl)CCCl)cc3)CC1CC[C@@H]1C2CC[C@]2(C)NC(=O)CCC12 (stereo partly specified) | inactive: 16.2 µM
SC1=Nc2ccccc2-c2nc(-c3ccccc3)cc(-c3ccc(Br)cc3)c2C1 | active: 0.804 µM
CN(C)C(=N/O)/C(=N\O)N(C)C | inactive: > 100 µM
CON(C)C(=O)C(C)NC(=O)OC(C)(C)C (stereo unspecified) | inactive: > 100 µM
COC(=O)C1(Cc2ccc3c(c2)CCC3)Cc2ccccc2C1O (stereo unspecified) | inactive: 20 µM
NCCc1ccc(S(=O)(=O)O)cc1[N+](=O)[O-] | inactive: > 100 µM
Cc1cc([N+](=O)[O-])c(C)c2c1[nH]c1ccc(/C(CCC3CCCC3)=N\N)cc12 | inactive: 17.3 µM
O=C(CSCC(=O)N/N=C/c1cccc(C(F)(F)F)c1)N/N=C/c1cccc(C(F)(F)F)c1 | inactive: > 100 µM
C=CCN(C)CN(C)c1nc(N(C)C)nc(N(C)C)n1 | inactive: > 100 µM
Nc1nnc(O)c2c1c(I)cn2C1OC(CO)C(O)C1O (stereo unspecified) | inactive: 2.29 µM

SMILES | GI50
O=C(O)Cc1ccccc1CCc1ccccc1Cl | inactive: > 100 µM
CC1(C)O[C@@H](CP(c2cccc3ccccc23)c2cccc3ccccc23)[C@H](CP(c2cccc3ccccc23)c2cccc3ccccc23)O1 | inactive: > 100 µM
Clc1ccc(OCc2nnc(CCCCCCCCc3nnc(COc4ccc(Cl)cc4Cl)o3)o2)c(Cl)c1 | inactive: > 100 µM
O=C(Cc1nc2ccc([N+](=O)[O-])cc2nc1O)C(=O)Nc1cc(Cl)c(Cl)cc1Cl | inactive: > 100 µM
CCCCCCCCCCCCCCCc1nnc(SCC(=O)O)[nH]1 | inactive: > 100 µM
CCCOc1ccc(-c2nc(-c3ccc(/N=C/c4ccc(N(CCOS(C)(=O)=O)CCOS(C)(=O)=O)cc4C)cc3)cs2)cc1 | inactive: 15.5 µM
O=[N+]([O-])c1ccc(-c2ccc(C3=Nn4c(CNc5ccccc5Cl)nnc4SC3)o2)cc1 | inactive: > 100 µM
CC1=C(C(=O)Nc2cccc(C(F)(F)F)c2)C(c2ccc(O)cc2)C(C(=O)Nc2cccc(C(F)(F)F)c2)=C(C)N1 | inactive: 23.8 µM
Cc1nc2nn(Cc3ccccc3)cc2c(=O)o1 | inactive: > 100 µM
c1ccc(C(=NNc2nc3ccccc3[nH]2)c2ccccn2)nc1 | active: 0.12 µM
Cc1cc(S(=O)(=O)Nc2nc3cscc3c(=O)n2N)c(S)cc1Cl | inactive: 33.3 µM
CCN1/C(=C/c2ccc3ccccc3[n+]2CC)C=Cc2ccccc21 | active: 0.494 µM
CSC1=N[C@H](c2ccccc2)CS1 | inactive: > 100 µM
c1ccc2c(c1)CCN1CCc3c([nH]c4ccccc34)C21 (stereo unspecified) | inactive: 50.9 µM
Nc1nc(Cl)cc(NCC2(CO)CCCC2)n1 | inactive: > 100 µM
CCN(CC)/C(SCc1ccccc1)=C(\C(Cl)=C(Cl)Cl)[N+](=O)[O-] | inactive: 24.7 µM
CCCCCCCCCCCCCCCCCCNc1nc(=O)n(C2CC(O)C(COP(=O)(O)OCC(COP(=O)(O)OC3C(CO)OC(n4ccc(N)nc4=O)C3O)OCCCCCCCCCCCCCCCCCC)O2)cc1F (stereo unspecified) | inactive: 24.3 µM
O=[N+]([O-])c1c(/C=N/c2ccccc2)oc(-c2ccc3c(c2)OCO3)c1-c1ccc2c(c1)OCO2 | inactive: > 100 µM
O=C(O)[C@H]1NC[C@@H]2ON=C(Br)[C@@H]21 | inactive: > 100 µM
CCOC(=O)CSC(=O)NCCCl | inactive: > 100 µM
CC12CCCCC1C(=O)C2(Cl)Cl (stereo unspecified) | inactive: 3.79 µM
C/C(=C/C(=O)Nn1c(Cc2ccccc2)n[nH]c1=O)C(=O)O | inactive: > 100 µM

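48-hour exposure; five concentrations; linearly interpolated endpoints. Here, GI50 denotes the concentration required for 50% inhibition of growth.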 Calls of active or inactive are those of the source. Cut-off read from the data, not from the text of the source: active = GI50 up to about 1.1 µM and inactive = higher. Square brackets hold non-standard residues; d marks the D form. Peptide text beside a SMILES is read from it. * marks the point of attachment. ξ: configuration not given here. ξF = NC(Cc1ccccc1)C(=O)O; Cbz = O=C(OCc1ccccc1)*; Aib = CC(C)(N)C(=O)O
